T1: TRAF2, Q12933
T1 chain: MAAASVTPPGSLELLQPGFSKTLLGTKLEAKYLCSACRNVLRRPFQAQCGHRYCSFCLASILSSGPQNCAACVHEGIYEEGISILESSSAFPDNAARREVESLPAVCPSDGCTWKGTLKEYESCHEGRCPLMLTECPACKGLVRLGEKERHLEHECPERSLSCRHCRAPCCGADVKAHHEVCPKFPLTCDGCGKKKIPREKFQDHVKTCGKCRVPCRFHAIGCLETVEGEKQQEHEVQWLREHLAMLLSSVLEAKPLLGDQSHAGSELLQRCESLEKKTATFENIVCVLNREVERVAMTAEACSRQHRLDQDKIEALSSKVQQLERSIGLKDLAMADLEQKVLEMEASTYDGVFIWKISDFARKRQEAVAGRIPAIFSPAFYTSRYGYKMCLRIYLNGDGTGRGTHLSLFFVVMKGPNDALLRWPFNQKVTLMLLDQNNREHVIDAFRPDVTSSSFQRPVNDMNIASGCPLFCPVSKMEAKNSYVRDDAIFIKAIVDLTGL

B1: traf2_out_11_169_799 (protein)
chain: KEAEKNRKINDKALELNDKAKEELLKHALELAKKEGLDTEEVKAIYEKNKNRSLSAVASALIDYFKSQGKEEAAEAVLKKYEELKEKINKEMTAFIKELE
B2: traf2_out_20_38_2036 (protein)
chain: SMEEEEEEKLEEIIRVANEAYDAYEAEIAALKAAGKTVEEIAAIAKERVRELLSKVGLEEEAEILVEDIDLALSSPEAERLIARILARAEAKVKQKELNE
B3: traf2_out_6_156_2450 (protein)
chain: MIEEIFEKAVKEIEELIKKLAAAPESKKIAYINKIAGTFYKALQELRESGASLEEIEEFVERLLKKAEELANEAGLDEDTKNLLLSTLSAVGEVAIANAK
B4: traf2_out_18_147_1813 (protein)
chain: SWREAIDKIADLSEKIGKLMDEIAKLTGKEEETQKLRDILTSTSVSEEEKKEAVEKAKEKYKKEGKEEAVKKLEEALKLSKERKKAAKEANKLINEEEAK
B5: traf2_out_17_178_1732 (protein)
chain: SKEEILKEISEYADKMLDVNKEAMDKLKELAEKEGILTPELKKRLDEVASTSNLYALEEVANEIIKLSKNKEEVQKLLDETVKKLTELRKKIQEAVEKLE
B6: traf2_out_13_95_1085 (protein)
chain: SAETNAKIMAIADKAQDQIDAILQALAEQVAGDPELAAAVQQALQLAQTQGVNEALHLLEQLAAANPEHKELLDAAIAQIKAVKAQASKEISALLKEEEA
B7: traf2_out_15_180_1329 (protein)
chain: MTEEELEKRIELASEAADKVQDHLDALLAAHPELSEEEKALLRAAARAILTLLINGEYEEAKKHLEATKAKVNPLTAAVLEEIYKFAKEVVEKAKEELKK
B8: traf2_out_1_27_1014 (protein)
chain: SDEELTKLIKETDKKIAEVSLEEAKKVVKEALKEAAKLGPEDAMVLANTLIASQLDEERLKAIAEAAVEAFKELGFPEEDIERLKRIAESVLKLNKKVLA
B9: traf2_out_17_162_1554 (protein)
chain: SELEEEKKRLEEELKELKKKLKELKEKLKELEKLSKEELTDLLVEASEAKRRALELAERLKELEEEIGEEEAGKLREEAEKIAEELQKIANKIYKEIEKK
B10: traf2_out_14_149_1257 (protein)
chain: SATEERKKALREAREIFREIAKMLEEAIKAGSTELDKEKLKELLKKAREILSKQGFVLSHLLAMEDLLEKTEEFTKEKLEELLELARRAIESLEVLEEML
B11: traf2_out_17_162_1498 (protein)
chain: AATEARLAELRARLEALKERLKELEEKLPDLPKMSKEELSDLLVEVSELRREARALAEELEALAKETGSPEAVALLAEAKALAERAQEIANKIYKEYEAK
B12: traf2_out_5_189_2317 (protein)
chain: SEKEKERKELNEKARELDREVRELINRMQAEGKSWEEIAEALLKRMEELSLEDANLYSGIAYSILMGMALVSGDEELKKVAEKFRERARKLIEERERELR
B13: traf2_out_6_156_2431 (protein)
chain: KLEEILEEAKKEIKKLIDELSKASEEKKIRYFNKIAGVAKRALERLREAGASLEEIKAFAEELLKFVKEEADKAGLDEDTKNLLLASLNAVFDDAIAAAK
B14: traf2_out_15_180_1313 (protein)
chain: MTMEELRRLADIQLRIEDRALAHARELAERRGLDEERLLARTRVLVRHILSMLHVGWEEEAEAALAELAATLSPEEAAALREVAALTRELWRRERKRLEE
B15: traf2_out_20_3_2108 (protein)
chain: EELEKQYQKELEKALKLLEEAAKLADPETAKRLKELKKRVEASKSLPLSDRLVELSEVRREVLALAQEAEAAGKEELAKVLEEAADALNRAMNLVYQMIE
B16: traf2_out_15_48_1344 (protein)
chain: STEELREKAREVADRIDAAKDEVAATLEKAKPKATPEEQKILDEIITAARTGAGARTVLALLGEAIPKFSPELQAIVTELRDRLEAVIREAGREMAEVLK
B17: traf2_out_11_169_821 (protein)
chain: EEEEFNRELNDFALEQNDEAVKKLKEFALELAKEAGLDVEEVKAIFEEHKGKSLSAVAAALIAWFRSKGKEEEAKKIEEKYDELKDEINKKVSAKIKELE
B18: traf2_out_16_177_1451 (protein)
chain: ELEKVSDRLVILSLLRRAALTAVEGRGEEYKEYLEEARREAKEAGDEEALELAERIEELIEENTEEAKEELLRLARELQREAGELADRAEELIKERAKKE
B19: traf2_out_12_50_982 (protein)
chain: SMEEEERRENEELMALGDRAIDEADRIAAETGGDPEAAFARLVELAEADPSQARFLRVVVRVLRRMFLRRGADPARVGALADEAEERLDEIIEEKVPPKP
B20: traf2_out_11_155_701 (protein)
chain: EEKKKLNNELVDKMMEIEDKTKAELAKIAAEAAAEHPEHAEAIAALLEESSRFSATTMAGRLAALFEELGLEEYAARVKELREKAQEEKNKVYKEIEKKM
B21: traf2_out_20_3_2130 (protein)
chain: MELEEELEKELEEAEKLLKEAAKLADKETAAELKELIKRLKASRSLPLEDRLVVLSEVRRRVLEMAEAARAAGKEELAAVLEEAADELNEAMNLLMKIIE
B22: traf2_out_13_95_1034 (protein)
chain: SRELAEKIMEIADEAEEKILKLLEEKSKELADDPEMVKVLEEARRLALTRGVNEAIHLLREASERFPEYKEELDKLIEEIEKIREEAGKKVAELIKEEEE
B23: traf2_out_14_78_1300 (protein)
chain: MEEEVRRLRERLREREERIERLRERARELAKEKTSDALVEISEIRRELRRIALELEELLAEAEARGLPQEVLDEIRRALERAERAAEEANRLAQEVYDAL
B24: traf2_out_18_3_1907 (protein)
chain: KEEERKKLSEKIDEIEDEARAYARRVLDELAERHPEVRERLDALRADLERGGGAFGVLEALAELAKELGDEERAEEIEAFIRKKRKEFQKLVDEYEKLIK
B25: traf2_out_17_162_1631 (protein)
chain: SATEAKKAQLEAELAELEAQRKELEEKAKNIEKLSKEELTDLLVEASEARRRALELAEEIEALKKELNDPELDTLLARAEALAEQFQRLANLFYKELLKK
B26: traf2_out_17_162_1574 (protein)
chain: EELERELEELKRRLEELEERLKEFEKQLPNIPKMSYEELTDKLVEVSELRREARRLAEELRRLRKELGSEELEELVERAEEIAERLNKIANKIYKEIEKK
B27: traf2_out_9_17_2605 (protein)
chain: AAAKERRKERLLKAVKEVLEELVKEGLITEEQAKEILEKVEKLLEEGASDDEVIANFLGMVASILLTKSDLSLSEINEVVGKAYRKLRAAREALRAEEAA
B28: traf2_out_13_95_1055 (protein)
chain: SAETAAKINEIADEALERALALLRAAQEEVADDPAASAVLAEALRLAETRGISEAIHLLREAQAADPAHAERFAALIEELEAIRREAGRRVAEVLKEEKE
B29: traf2_out_20_3_2072 (protein)
chain: EELLKEAEKELEKAIKLLEEAAKKADEETAKELKELIERLKKSRELSIDDRLVVVSEVRREVLRLAEKARKEGREELAKLLEKAAEALNKAAQLLYDILQ

Over roughly 1,800 sequences, “median log2 fold change of GCK-ALFA target abundance (FLAG IP / Myc IP barcode read proportion)” has its median near 0.14; the lowest 2% begin near -0.84. The list shows a part of the results.

For the assay, the target named is T1, TRAF2, Q12933. As to the kind of experiment: median log2 fold change of GCK-ALFA target abundance (FLAG IP / Myc IP barcode read proportion) (log2 ratio); each designed protein is fused to an ALFA-tag nanobody in HEK293 cells to bring the named protein to FLAG-tagged glucokinase (GCK); Myc marks an untargeted standard; higher = target protein stabilised (more abundant). The conditions noted are these: target protein: 3xFLAG-MCP-GCK-ALFA reporter; HEK293 landing pad (RPLP). A digest of the protocol:
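The readout is target abundance, the per-binder median log2 ratio of FLAG to Myc barcode read proportions. It came from HEK293 landing-pad cells carrying a recombined ALFA-nanobody-fused binder library, induced with 2 μg mL^−1 doxycycline and transfected with a plasmid for a FLAG-tagged target and a Myc-tagged standard. After 48 h, lysates were immunoprecipitated with anti-FLAG and anti-Myc, and circular RNA barcodes were reverse transcribed, amplified and sequenced. Each barcode needed a proportion of at least 10^−7 in both replicates and each binder at least 3 barcodes per replicate, a pseudocount of 10^−6 was added, and the replicates were pooled.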
Consider B1, for which the “median log2 fold change” value was 0.166.

Take B2: the “median log2 fold change” value was -1.27.

Regarding B3, the “median log2 fold change” value came out at 0.00905.

B4: the “median log2 fold change” value is 0.327.

B5: the “median log2 fold change” value was 0.129.

Regarding B6, the “median log2 fold change” value is 0.21.

With B7, the “median log2 fold change” value turned out to be 0.29.

As for B8, the “median log2 fold change” value is 0.337.

For the molecule B9, the “median log2 fold change” value was 0.337.

Consider B10, for which the “median log2 fold change” value is 0.276.

B11: the “median log2 fold change” value was determined as 0.242.

In the case of B12, the “median log2 fold change” value is 0.411.

For B13, the “median log2 fold change” value is 0.246.

For B14, the “median log2 fold change” value stood at 0.232.

Take B15: the “median log2 fold change” value was -0.127.

Take B16: the “median log2 fold change” value was determined as 0.373.

As to B17, the “median log2 fold change” value came out at 0.32.

Take B18: the “median log2 fold change” value amounted to 0.21.

Regarding B19, the “median log2 fold change” value stood at 0.189.

Regarding B20, the “median log2 fold change” value was determined as 0.105.

On to B21, for which the “median log2 fold change” value is 0.246.

Consider B22, for which the “median log2 fold change” value was -0.375.

Turning to B23, the “median log2 fold change” value came to 0.162.

B24: the “median log2 fold change” value was 0.226.

Consider B25, for which the “median log2 fold change” value turned out to be 0.0355.

As for B26, the “median log2 fold change” value is -0.0729.

With B27, the “median log2 fold change” value was -0.138.

Turning to B28, the “median log2 fold change” value came out at 0.257.

Regarding B29, the “median log2 fold change” value is 0.267.

(Values after the supplement of paper PMC12632987.)
